SMILES strings stand for the structures. Whole data set: some 110,000 compounds, median “z-score” near -0.1, cut for the highest 2% near 2. The list shows a part of the results. Calls of active or inactive are those of the source.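 The calls were made as follows: active = z-score in the third read window above 3 or below -3; inactive = the rest.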

Our source for the z-score values is PubChem BioAssay AID488969 (Vanderbilt High Throughput Screening Facility, 2010).

This experiment deals with Metabotropic glutamate receptor 8 (Rattus norvegicus) (UniProt P70579). As to the kind of experiment: rat mGluR8 modulators via GIRK flux, primary screen, cell-based, thallium flux, HTS (AID 488969). The following applies: HEK293 rat mGluR8, GIRK (G protein-gated inwardly rectifying potassium channel) thallium flux, FluoZin2; at 10 µM; stronger effect = higher value; submaximal glutamate (EC20) added with thallium.
Chain of UniProt P70579 (P70579 whole entry, looked up): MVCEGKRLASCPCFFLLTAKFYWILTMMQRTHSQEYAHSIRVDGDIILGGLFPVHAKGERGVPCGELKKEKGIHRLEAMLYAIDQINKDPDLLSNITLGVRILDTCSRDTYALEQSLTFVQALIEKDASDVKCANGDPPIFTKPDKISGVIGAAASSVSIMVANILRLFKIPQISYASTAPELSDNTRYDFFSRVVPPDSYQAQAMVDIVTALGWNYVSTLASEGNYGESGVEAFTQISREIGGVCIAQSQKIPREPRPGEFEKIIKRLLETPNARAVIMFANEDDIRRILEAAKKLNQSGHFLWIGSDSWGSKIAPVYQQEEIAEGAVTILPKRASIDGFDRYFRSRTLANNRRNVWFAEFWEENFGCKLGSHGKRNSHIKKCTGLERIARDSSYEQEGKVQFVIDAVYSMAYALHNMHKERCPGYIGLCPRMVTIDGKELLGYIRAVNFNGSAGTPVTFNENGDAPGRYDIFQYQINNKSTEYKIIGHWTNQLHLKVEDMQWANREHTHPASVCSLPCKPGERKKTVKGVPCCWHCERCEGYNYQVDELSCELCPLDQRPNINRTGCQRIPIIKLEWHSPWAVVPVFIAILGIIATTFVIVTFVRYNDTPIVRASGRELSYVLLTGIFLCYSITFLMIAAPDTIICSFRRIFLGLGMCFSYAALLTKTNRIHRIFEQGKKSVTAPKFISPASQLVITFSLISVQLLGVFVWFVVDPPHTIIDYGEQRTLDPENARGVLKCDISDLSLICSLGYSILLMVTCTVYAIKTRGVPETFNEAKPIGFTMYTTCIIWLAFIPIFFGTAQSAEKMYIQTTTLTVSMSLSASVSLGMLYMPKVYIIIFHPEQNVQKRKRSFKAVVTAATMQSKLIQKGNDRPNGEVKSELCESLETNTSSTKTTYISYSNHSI
Regarding `COc1cc(C)c(CNc2cccc(C)c2)cc1C`, the z-score was -0.167.

Turning to `CCCCSC1(SCCCC)N=C(N)C2(C#N)C(c3ccccc3)NC(C)=CC12C#N` (configuration not stated), the z-score is 0.584.

`CC(C)(C)C1CCC(OC(=O)CN2CCOCC2)CC1` (configuration not stated) had a z-score of 0.247.

As for `CC(=O)NC1CC2CCCC(C1)N2C(=O)Nc1ccccc1` (configuration not stated), the z-score came out at 0.0058.

`Cc1cc(C)cc(OCC(=O)OCCN2C(=O)c3ccccc3C2=O)c1` gave a z-score of -0.436.

Take `O=C(N/N=C/c1ccc2cccc(OCc3ccccc3)c2n1)c1ccc(Br)cc1`: the z-score was active: 3.65.

Compound `Cc1cc(NC(=O)CCC(=O)N(CC2CCCO2)C(C(=O)NC2CCCC2)c2cccnc2)no1` (configuration not stated) had a z-score of -0.847.

As to `COc1ccc(C)cc1NC(=O)C(CCS(C)(=O)=O)NC(C)=O` (configuration not stated), the z-score turned out to be 0.425.

`CC(C)NC(=O)CSCc1c(Cl)cccc1Cl`: the z-score is -0.342.

`COc1ccc(NCc2nnc(SCC(=O)N3CCCc4ccccc43)o2)cc1` yielded a z-score of 0.966.

As for `COc1ccc(C(=O)Nc2nncs2)c(OC)c1`, the z-score was -0.284.

In the case of `CCCOc1ccc(OCCNC2CCCC2)cc1`, the z-score is -0.38.

With `CC(C)CC1(C(=O)O)NC(c2ccccc2O)C2C(=O)N(C(C)C)C(=O)C21` (configuration not stated), the z-score was determined as 0.0479.

As to `CCN1CCCC1CNC(=O)CCc1nc(-c2ccc(C)cc2)no1` (configuration not stated), the z-score turned out to be 0.135.

`O=C(COc1ccc(-c2ccccc2)cc1)N1CCN(S(=O)(=O)Cc2ccccc2)CC1` registered a z-score of -0.348.

Consider `CC(C1CC1)N(C(=O)NC1CCS(=O)(=O)C1)c1ccccc1` (configuration not stated), for which the z-score is -0.27.

With `COc1ccc2nc(C(C)O)[nH]c2c1` (configuration not stated), the z-score was found to be 0.0783.

Take `Fc1ccccc1CSc1nnc(-c2cnccn2)n1Cc1ccco1`: the z-score is -0.613.

In turn, `COc1cc(NS(=O)(=O)c2ccc(NC(=S)NC(=O)c3sc4cc(F)ccc4c3Cl)cc2)nc(OC)n1` displayed a z-score of -0.162.

`CN(C)S(=O)(=O)c1cccc(NC(=O)c2cc(-c3cccs3)nc3ccccc23)c1` returned a z-score of -0.162.

In turn, `Cc1cc(NC(=O)CSc2nc3ccccc3c(=O)n2-c2ccccc2)no1` returned a z-score of -0.161.

`Cc1nc(C)c(C(=O)NNS(=O)(=O)c2ccc([N+](=O)[O-])cc2)s1` registered a z-score of -0.481.

Compound `COc1ccc(N2CC(C(=O)Nc3nnc(SCc4ccccn4)s3)CC2=O)cc1` (configuration not stated) yielded a z-score of -0.304.

Regarding `COc1ccc(C(CNC(=O)CCOc2ccccc2)N(C)C)cc1` (configuration not stated), the z-score was -0.0296.

For the compound `C=CCc1cccc2cc(C(=O)OCC(=O)c3ccccc3)c(=O)oc12`, the z-score worked out at 0.222.

In turn, `O=C(COc1ccccc1-c1ccccc1)c1ccccc1` showed a z-score of -0.207.

`COc1ccc(-c2nc3ccccc3c(=O)o2)cc1OC`: the z-score was -0.408.

The compound `CC(Nc1ccc(Br)cc1)C(=O)N/N=C/c1ccccc1OCc1ccccc1` (configuration not stated) yielded a z-score of -0.283.

As for `Cc1cc(C)cc(N(CC(=O)Nc2ccc(-c3nc4ccc(C)cc4s3)cc2)S(C)(=O)=O)c1`, the z-score was -0.143.

Regarding `O=C(Nc1ncc(Cc2cccc(C(F)(F)F)c2)s1)c1ccc(-c2cccc([N+](=O)[O-])c2)o1`, the z-score was 0.182.

`Cc1cc(C)c(C#N)c(Sc2nnnn2-c2ccccc2)n1` returned a z-score of -0.338.

For the compound `O=C(CSc1ccccn1)N1CCN(c2ccccc2)CC1`, the z-score is 0.0291.

As for `COCCn1c(SCC(=O)NCc2ccc3c(c2)OCO3)nnc1-c1c[nH]c2ccccc12`, the z-score was -0.0146.

In turn, `O=c1c2c([nH]c3ccccc13)C(=C1CCCC1)CC2` displayed a z-score of -0.328.

The compound `CCc1ccc(C(=O)COC(=O)c2cnccn2)cc1` showed a z-score of 0.13.

Compound `CC(=O)Nc1cc(C(=O)N2CCN(C)CC2)ccc1Sc1ccc(C)cc1` gave a z-score of -0.253.

Regarding `CC(C)(C)OC(=O)N/N=C/c1ccc(C(=O)O)cc1`, the z-score was -0.193.

The compound `Clc1ccccc1OCc1nc(-c2ccncc2)no1` came in with a z-score of -0.364.

`CCOCC(=O)Nc1nc2ccc(OCC)cc2s1` registered a z-score of -0.0823.

`Cc1[nH]n(-c2ccccc2)c(=O)c1-c1ccc(Cl)cc1` returned a z-score of 0.236.

Consider `N#CNC(=Nc1cccc(F)c1)SCc1cccc(F)c1`, for which the z-score is -0.141.

`CSc1nnc2n(-c3ccccc3)c(=O)c3c4c(sc3n12)CCC4` gave a z-score of -0.327.

With `COc1ccc(C(=O)N/N=C/c2ccc(OC(=O)c3cccs3)cc2)cc1`, the z-score was -0.212.

Regarding `COc1cc(CC(=O)NCCc2ccc(S(N)(=O)=O)cc2)cc(OC)c1OC`, the z-score turned out to be 0.334.

As for `Cc1nn(Cc2c(F)c(F)c(F)c(F)c2F)c(C)c1NC(=O)c1ccc(COc2ccccc2Cl)cc1`, the z-score is -0.141.

As to `Cc1cc2cc(CNC(=O)c3ccc(S(=O)(=O)N(C)C)cc3)ccc2n1C`, the z-score was -0.0521.

The compound `CC(Sc1ccc(Cl)cc1)C(=O)NCc1cccnc1` (configuration not stated) came in with a z-score of -0.988.

In the case of `CCOC(=O)CSc1nc2c(sc3ccc([N+](=O)[O-])cc32)c(=O)n1Cc1ccco1`, the z-score was -0.436.

In turn, `Cc1ccc2nc(SCCCCOc3ccccc3)[nH]c2c1` had a z-score of -0.322.

`O=C(NCCc1ccccc1Cl)C1CCN(S(=O)(=O)c2cccs2)CC1` showed a z-score of 0.00999.

`Cc1cc(C)c(C#N)c(N2CCN(Cc3ccc4c(c3)OCO4)CC2)n1` came in with a z-score of -0.0896.

`CC(=O)c1c(C)[nH]c(C(=O)OCC(=O)NCCc2ccc(F)cc2)c1C`: the z-score was 0.162.

With `CC(C)n1c(SCC(=O)Nc2nc3ccccc3s2)nc2c1c(=O)n(C)c(=O)n2C`, the z-score is -0.303.

`C=CCn1c(SCc2csc(-c3ccc(Cl)cc3)n2)nnc1-c1ccccc1OC` came in with a z-score of -0.516.

For the compound `COc1ccc(C(=O)NNC(=S)NC(=O)c2ccco2)cc1`, the z-score was 2.99.

`COCCOC(=O)C1=C(C)NC2=C(C(=O)CC(C)(C)C2)C1c1ccc(N(C)C)cc1` (configuration not stated) returned a z-score of -0.192.

With `CCCC(=O)Nc1ccc(C(=O)NNC(=O)c2ccco2)cc1`, the z-score is -0.0576.

Consider `Cc1sc2nc(C3CCCCC3)nc(SCC(=O)N3CC(=O)Nc4ccccc43)c2c1C`, for which the z-score is -0.0509.

`CC1(c2ccccc2)CC(C)(C)N2C(=O)C3(C(C#N)=C(N)Oc4cc(O)ccc43)c3cccc1c32` (configuration not stated) yielded a z-score of -0.217.

Turning to `Cc1cc(C)cc(NC(=O)c2snc3c(=O)[nH]cnc23)c1`, the z-score is -0.739.

Turning to `CCn1c(SCC(=O)Nc2ccc(S(=O)(=O)Nc3ccccn3)cc2)nnc1-c1ccncc1`, the z-score was 0.0215.

Consider `COc1ccccc1CN(Cc1nc2ccccc2c(=O)[nH]1)C(=O)Nc1ccccc1C`, for which the z-score was -0.365.

In turn, `N#CCSc1nnc(C2CCCCC2)n1Cc1ccccc1` came in with a z-score of 0.969.

Compound `CC(C)c1ccc(/C=N/Nc2ccc(C(=O)O)cc2)cc1` showed a z-score of -0.222.

`COc1cccc(N/C=C(\C#N)c2ccc(OCCCF)cc2)c1`: the z-score was found to be 0.135.

`O=c1nc2s/c(=C\c3ccco3)c(=O)n2nc1Cc1ccccc1`: the z-score is -0.176.

In the case of `COc1ccc(NC(=O)c2ccc(C(=O)c3cc(OC)ccc3OC)cc2)cc1`, the z-score is -0.232.

`O=C(COC(=O)CCc1nc2ccccc2c(=O)[nH]1)NC(=O)NC1CCCC1` showed a z-score of -0.336.

`Nc1nonc1-c1nc2ccccc2n1CC(=O)N1CCN(c2ccc(F)cc2)CC1` gave a z-score of -0.117.

Consider `COc1ccc(OCCOCCOc2ccc(C)cc2[N+](=O)[O-])cc1`, for which the z-score was -0.176.

In the case of `O=C(c1ccco1)N1CCN(C(=O)c2sccc2-c2ccccc2)CC1`, the z-score was 1.95.

The compound `CCC(C)NS(=O)(=O)c1ccc(NS(C)(=O)=O)cc1` (configuration not stated) had a z-score of -0.507.

For the compound `O=C1c2ccc(Oc3ccc4c(c3)C(=O)N(CCCCO)C4=O)cc2C(=O)N1CCCCO`, the z-score is -0.145.

In the case of `CCOC(=O)c1c(C2CC2)csc1NC(=O)COC(=O)c1cc(OC)c(OC)cc1[N+](=O)[O-]`, the z-score was -0.175.

Consider `COc1ccc(-c2nc(CSCC(=O)N3CCC(C(N)=O)CC3)c(C)o2)cc1OC`, for which the z-score is -1.77.

The compound `Cc1ccc(Nc2nc(N/N=C/c3c[nH]c4ccccc34)nc(N3CCOCC3)n2)cc1` came in with a z-score of -0.18.

`Cc1cc(NC(=O)C2CCCCC2)n(-c2nc3ccccc3[nH]2)n1` gave a z-score of -0.0909.

The compound `CCCN1C(=O)C(O)(CC(=O)c2cccc(OC)c2)c2ccccc21` (configuration not stated) came in with a z-score of 0.257.

Consider `CCNc1nc2ccccc2[nH]1`, for which the z-score was -0.309.

Take `COC(=O)C(C(=O)Nc1ncccn1)C1CCCCCC1` (configuration not stated): the z-score amounted to 0.0614.

The compound `CCCNC(=O)c1cc(-c2ccc(OC)cc2)on1` registered a z-score of -0.153.

`COC(=O)c1cc(OC)c(OC)cc1NCC(=O)Nc1ccc(C)cc1`: the z-score was -0.403.

On to `Cc1ccccc1Nc1nc(-c2sc(NC(=O)c3ccco3)nc2C)cs1`, for which the z-score is -0.239.

In turn, `C(=C\c1ccccc1)/C=N/Nc1nc(N2CCCCC2)nc(N2CCCCC2)n1` yielded a z-score of -0.259.

Consider `C=CCNC(=O)CNS(=O)(=O)c1ccc(F)cc1`, for which the z-score is 0.263.

For the compound `COc1cccc(NC(=S)N(CCN(C)C)C(C)c2ccco2)c1` (configuration not stated), the z-score is -0.105.

In the case of `CCNc1nc(NC(C)C)nc(Oc2ccc(OCCOc3ccc(C)cc3)nn2)n1`, the z-score is -0.284.

`O=C(CSc1nnc(-c2ccncc2)n1Cc1ccco1)Nc1nc(-c2ccccc2)cs1` displayed a z-score of -0.325.

On to `Cc1noc(C)c1S(=O)(=O)N1CCCC(C(=O)NCCC2=CCCCC2)C1` (configuration not stated), for which the z-score came out at 0.423.

`COc1cc(OC)cc(C(=O)Nc2cccc(N3CCCC3)c2)c1` had a z-score of 0.0419.

Take `CC(C)(C)NC(=O)NC(=O)COc1ccc(Br)cc1Br`: the z-score is -0.456.

`Oc1ccc(Br)cc1-c1cc(-c2ccccc2F)[nH]n1` had a z-score of -0.636.

`O=C(Nc1cccc2c1CCCC2)c1ccc(Cl)c([N+](=O)[O-])c1` had a z-score of -0.222.

Regarding `O=C1NNC(=O)C2C3C=CC(C4CC34)C12` (configuration not stated), the z-score is -0.491.

`CC(/C=N/NC(=O)c1cccnc1)=C\c1ccco1` came in with a z-score of 1.77.

Turning to `NC(=O)c1ccccc1OCC(=O)NS(=O)(=O)c1ccc(Cl)cc1`, the z-score was -0.342.

`CCC(C)(C)NC(=O)C(c1ccc(C)cc1)N(Cc1ccco1)C(=O)Cn1nnc2ccccc21` (configuration not stated): the z-score was determined as 0.651.

As to `CCOC(=O)c1ccccc1NC(=O)Cn1c(=O)n(Cc2ccccc2)c(=O)c2c(C)c(C)sc21`, the z-score is -0.19.

Regarding `Cc1ccc(Nc2nnc(SC/C(O)=C(\C#N)c3nc4ccccc4[nH]3)s2)c(C)c1`, the z-score was -0.166.

Turning to `C=CCN1C(=O)C(Cc2cccc(C)c2)SC1=Nc1ccc(C(=O)O)cc1` (configuration not stated), the z-score was -0.381.

`CN(C(=O)Cn1nnc(-c2cccc(C(F)(F)F)c2)n1)C1CCCCC1` gave a z-score of 0.0755.

Compound `CCSc1nnc(NC(=O)C(CC)(C(F)(F)F)C(F)(F)F)s1` showed a z-score of -0.322.

As for `Cc1cc(C(=O)N/N=C/c2cccc(OC(=O)c3ccco3)c2)n[nH]1`, the z-score is -0.279.

Take `COC(=O)c1nn(-c2ccccc2)c(Cl)c1/C=N/OCc1ccc(C)cc1`: the z-score was -0.126.

Regarding `N=c1n(CCc2ccccc2)c2ccccc2n1Cc1ccccc1F`, the z-score worked out at 1.16.

In turn, `O=c1c2c3c(sc2n2cnnc2n1CCc1ccccc1)CCCC3` had a z-score of -0.405.

`COc1ccc(NC(=O)CCNS(=O)(=O)c2ccc(Br)s2)cc1`: the z-score was -0.185.
